# From PubChem BioAssay (NCATS)
# The shares of active, inactive and inconclusive entries below differ from those in the screen. For some assays here: Potencies of inconclusive entries are left out as doubtful fits. For some assays here: A note “side channel” means that the fit belongs to a control or component signal, not to the main read-out. Activity calls are given as the source filed them. Unless noted, the call rests on the fitted dose curve; in most records, active means well fitted curve in the direction sought with a large enough effect; inconclusive means small, poorly fitted or top-dose-only effect, or another doubt; inactive means no such curve, though single readings can be large; an effect the other way counts as inactive or inconclusive.
# Experiments:
# [1] = molecular target: Peroxisome proliferator-activated receptor delta (Homo sapiens) (UniProt Q03181); test: qHTS assay for small molecule agonists of peroxisome proliferator-activated receptor delta signaling (AID 588534; calls by dose curve; further: potency means the concentration at half of the fitted maximal effect); details: HEK293T PPARdelta-UAS-bla, beta-lactamase ratio, 18 h; activation: at 76.7 µM (top of the series)
# Method in brief: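 Fluorescence from CCF4 substrate cleavage by beta-lactamase reporter, read 2 hrs at RT, measured agonist activity. Compounds were tested with 18 hrs exposure at 37 C. Concentration-response data fitted to Hill equation.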
# [2] = molecular target: Vitamin D3 receptor (Homo sapiens) (UniProt P11473); test: qHTS assay for small molecule agonists of vitamin D receptor signaling (AID 588543; calls by dose curve;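 further: 0% = DMSO basal and 100% = reference agonist control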); details: HEK293T VDR-UAS-bla, beta-lactamase ratio, 16 h; activation: at 76.8 µM (top of the series)
# Method in brief: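 β-lactamase reporter, VDR-UAS-bla HEK293T, agonist mode. Cells plated 5 h at 37 °C, compound titration 16 h at 37 °C, CCF4 dye 2 h RT, ratio 460/530 nm. Hill fit → EC50, efficacy vs 50 nM 1α,25-(OH)2D3.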
# [3] = qHTS assay for small molecule activators of the p53 signaling pathway (AID 651743; active means well fitted activation curve with a large enough effect in the signal ratio, not every such curve was filed as active; inconclusive means small, poorly fitted or top-dose-only effect, or a change in a side signal; the % refers to the signal ratio; further: potency means the concentration at half of the fitted maximal effect); details: HCT-116 p53RE-bla, beta-lactamase FRET ratio, 16 h; activation: stronger effect = higher value
# Method in brief: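 Cell-based beta-lactamase reporter (p53 response elements, HCT-116 background). After a 5-hour preincubation, cells received compound for 16 hours at 37 C; substrate development ran 2 hours at room temperature.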
# [4] = molecular target: Peroxisome proliferator-activated receptor alpha (Homo sapiens) (UniProt Q07869); test: qHTS assay for small molecule agonists of the peroxisome proliferator-activated receptor alpha (PPARalpha) signaling pathway (AID 651778); details: PathHunter PPARalpha complementation, chemiluminescence, 6 h; further: potency means the concentration at half of the fitted maximal effect
# Method in brief: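 Cells plated at 2,000/well and held overnight at 37 C, 5% CO2, then compound added by pin tool for 6 hr; after PathHunter detection reagent and 60 min at room temperature, chemiluminescence from enzyme complementation was read.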
# [5] = qHTS assay for small molecule agonists of the antioxidant response element (ARE) signaling pathway measured by Nrf2-dependant transcriptional activity (AID 720636; active means well fitted curve in the direction sought with a large enough effect in the repeat runs; inconclusive means weak or mixed curves; inactive means no such curve, though single readings can be large; an effect the other way counts as inactive or inconclusive; further: potency means the concentration at half of the fitted maximal effect)
# Method in brief: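 Reporter gene assay, HepG2 ARE-luc: 16 hr compound, 37 C, 5% CO2; read-out luciferase luminescence.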
# [6] = qHTS assay for cell viability of the p53RE-bla HCT-116 cell line (AID 743292); further: potency means the concentration at half of the fitted maximal effect; nearly all actives have a fitted effect of over 55% in size
# Method in brief: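 Readout: CellTiter-Glo luminescence after 30 min RT. Treatment: compounds in DMSO, 16 h, 37 C. Cells: CellSensor p53RE-bla HCT-116, 4,000/well, preincubated 5 h.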
# [7] = molecular target: Cytochrome P450 2D6 (Homo sapiens) (UniProt P10635); test: qHTS Assay for Inhibitors and Substrates of Cytochrome P450 2D6 (AID 891);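 further: luciferin methyl ether substrate demethylated by CYP2D6 with NADPH regeneration; potency means the concentration at half of the fitted maximal effect; nearly all actives have a fitted effect of over 60% in size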
# Method in brief: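 Human CYP2D6 (5 nM) with 30 uM Luciferin-ME EGE (at Km) in 100 mM KPO4, compound preincubated 10 min, then NADPH regeneration system for 60 min at room temperature. Luciferin read by luminescence; normalized to 1.43 uM quinidine.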
# [8] = molecular target: Ubiquitin carboxyl-terminal hydrolase 2 (Homo sapiens) (UniProt O75604); test: qHTS Validation Assay for Inhibitors of Ubiquitin-specific Protease USP2a Using CHOP2 as the Reporter (AID 463106);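 further: plate controls were DMSO for no effect and full inhibition by NEM for full effect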
# Method in brief: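 USP2 core (10nM final) was preincubated with compound for 30min at RT in 20mM Tris-HCl pH 8.0, 2mM CaCl2, 2mM beta-mercaptoethanol, 0.05% CHAPS. Ub-CHOP2 and reporter substrate (25nM each) were added, and fluorescence (Ex 485/Em 531nm) was read after 60min.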
# [9] = molecular target: Tyrosine-protein phosphatase non-receptor type substrate 1 (Homo sapiens) + Leukocyte surface antigen CD47 (Homo sapiens) (UniProt P78324+Q08722); test: CD47-SIRPalpha protein protein interaction - Alpha assay qHTS validation (AID 1347059);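 further: bead proximity luminescence from CD47 binding SIRPalpha after compound preincubation with SIRPalpha; on the % scale 0 is the no-effect control and ±100 the full control effect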
# Method in brief: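 Soluble extracellular domains: Avi-tag biotinylated SIRPalpha (25 nM) preincubated 30 min RT with compound, then 6His-CD47 (12.5 nM) 30 min; Ni-NTA acceptor and streptavidin donor beads (10 ug/mL) 30 min, AlphaScreen read. PBS pH 7.4, 0.05% IGEPAL.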
# [10] = Quantitative High-Throughput drug screen in 47 multiple myeloma cell lines against the NCATS MIPE library collection: FR4_PLB cell viability assay (AID 1918924; further: potency means the concentration at half of the fitted maximal effect; nearly all actives have a fitted effect of over 35% in size)
# Method in brief: (§1)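 Viability readout: CellTiter-Glo luminescence following 5 min room-temperature incubation with reagent. Prior exposure: 48 h, 37C, humidified 5% CO2, 500 cells per well.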
# [11] = Quantitative High-Throughput drug screen in 47 multiple myeloma cell lines against the NCATS MIPE library collection: OCIMY1_PLB cell viability assay (AID 1918979);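 further: 100% = DMSO-only wells and 0% = cell-free media-only wells; nearly all actives have a fitted effect of over 35% in size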
# Method in brief: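 MIPE 4.0 approved/investigational drugs; 500 cells/well; 48 h 37 °C humidified 5% CO2; CTG luminescence readout; DMSO = 100%, media = 0% viability.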
# [12] = Quantitative High-Throughput drug screen in 47 multiple myeloma cell lines against the NCATS MIPE library collection: OPM2_DSMZ cell viability assay (AID 1919872); further: potency means the concentration at half of the fitted maximal effect; nearly all actives have a fitted effect of over 30% in size
# Method in brief: as §1
# [13] = molecular target: Cytochrome P450 2C19 (Homo sapiens) (UniProt P33261); test: qHTS for inhibitors of CYP2C19 against the NCATS DSHEA and TCM libraries (AID 1919974);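 further: luminescence from luciferin released by CYP2C19 oxidation of a pro-luciferin substrate; on the % scale 0 is the no-effect control and ±100 the full control effect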
# Method in brief: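 Read-out is luminescence after P450-Glo detection (30 min, RT). Before that: 15 min compound–enzyme preincubation, then 30-45 min reaction with 1x NADPH regeneration solution, substrate concentration isoform-specific.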
# [14] = molecular target: Cytochrome P450 3A4 (Homo sapiens) (UniProt P08684); test: qHTS Assay for Inhibitors and Substrates of Cytochrome P450 3A4 (AID 884); details: recombinant CYP3A4, Luciferin-PPXE luminescence; activity change, negative = inhibition: at 57.1 µM (top of the series); further: on the % scale 0 is the no-effect control and ±100 the full control effect; nearly all actives have a fitted effect of over 50% in size
# Method in brief: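 20 nM human CYP3A4 with 25 uM Luciferin-PPXE (at KM) in 200 mM KPO4, preincubated 10 min with compound; NADPH regeneration started a 60 min RT reaction. Luciferin detected by luminescence, normalized to 57 uM ketoconazole as full inhibition.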
# [15] = qHTS of pediatric cancer cell lines to identify multiple opportunities for drug repurposing: Confirmatory screen for BT-12 cells (AID 1347112); further: on the % scale 0 is the no-effect control and ±100 the full control effect; nearly all actives have a fitted effect of over 55% in size
# Method in brief: (§2)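 Cells (500-1,000/well) in growth media were settled 5 h at 37 degrees C, then given compounds for 48 h. Viability was read as CellTiter-Glo luminescence. Primary runs used MIPE at 11 points (0.78 nM-46 µM) and NPC at 8 points (0.59 nM-46 µM); follow-ups used 11 points.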
# [16] = qHTS of pediatric cancer cell lines to identify multiple opportunities for drug repurposing: Confirmatory screen for SJ-GBM2 cells (AID 1347116);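 further: plate controls were DMSO for no effect and bortezomib for full effect; nearly all actives have a fitted effect of over 60% in size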
# Method in brief: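 Viability measured as metabolically active cells via CellTiter-Glo luminescence following 48 hours of compound exposure, 11-point dilutions in confirmatory testing. 500-1,000 cells/well plated 5 hours before dosing; controls were DMSO and 2.3 µM bortezomib.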
# [17] = qHTS of pediatric cancer cell lines to identify multiple opportunities for drug repurposing: Confirmatory screen for control Hh wild type fibroblast cells (AID 1347121);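 further: plate controls were DMSO for no effect and bortezomib for full effect; nearly all actives have a fitted effect of over 70% in size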
# Method in brief: as §2
# [18] = qHTS of pediatric cancer cell lines to identify multiple opportunities for drug repurposing: Confirmatory screen for Rh30 cells (AID 1347126); further: potency means the concentration at half of the fitted maximal effect; nearly all actives have a fitted effect of over 55% in size
# Method in brief: as §2
# [19] = molecular target: Cytochrome P450 2C9 (Homo sapiens) (UniProt P11712); test: qHTS Assay for Inhibitors and Substrates of Cytochrome P450 2C9 (AID 883); further: on the % scale 0 is the no-effect control and ±100 the full control effect; nearly all actives have a fitted effect of over 60% in size
# Method in brief: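 CYP2C9 deoxyluciferin hydroxylation, 37C, 60 min with NADPH regeneration; 10nM enzyme, 100uM Luciferin-H (KM). Glo detection reagent stopped reaction; luminescence normalized to sulphaphenazole (57uM) full inhibition.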
# [20] = Validation screen for small molecules that induce genotoxicity in human embryonic kidney (HEK293T) cells expressing luciferase-tagged ELG1 (AID 493106); further: 0% is about no effect
# Method in brief: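 Luminescence from an ELG1-luciferase fusion serves as the read-out, rising when genetic stress elevates ELG1 protein. HEK293T reporter cells (2,000 per well) received 23 nL compound, incubated 16 hr at 37 °C, then ONE-Glo for 30 min at room temperature.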
# Tags describe the fitted curve by direction and shape or compound fluorescence and quenching.
# Sequence of UniProt O75604 (O75604 whole entry, looked up): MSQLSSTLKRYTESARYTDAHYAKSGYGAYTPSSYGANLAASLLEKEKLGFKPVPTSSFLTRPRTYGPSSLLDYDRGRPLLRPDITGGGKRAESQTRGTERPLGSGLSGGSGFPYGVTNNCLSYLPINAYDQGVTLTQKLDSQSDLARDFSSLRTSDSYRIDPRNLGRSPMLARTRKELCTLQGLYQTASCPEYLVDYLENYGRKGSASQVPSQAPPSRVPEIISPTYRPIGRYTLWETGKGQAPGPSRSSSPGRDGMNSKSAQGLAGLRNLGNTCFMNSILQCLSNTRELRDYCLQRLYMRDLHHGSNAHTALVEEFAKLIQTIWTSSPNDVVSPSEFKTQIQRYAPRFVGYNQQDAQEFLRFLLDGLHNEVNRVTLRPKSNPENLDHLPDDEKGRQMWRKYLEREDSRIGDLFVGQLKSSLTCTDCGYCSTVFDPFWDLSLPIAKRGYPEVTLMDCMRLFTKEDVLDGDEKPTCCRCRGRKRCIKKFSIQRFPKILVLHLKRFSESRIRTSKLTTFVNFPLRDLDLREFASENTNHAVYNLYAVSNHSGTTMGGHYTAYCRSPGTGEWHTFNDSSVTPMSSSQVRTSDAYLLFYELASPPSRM
# Sequence of UniProt P78324 (P78324 whole entry, looked up, the tested form may be a part): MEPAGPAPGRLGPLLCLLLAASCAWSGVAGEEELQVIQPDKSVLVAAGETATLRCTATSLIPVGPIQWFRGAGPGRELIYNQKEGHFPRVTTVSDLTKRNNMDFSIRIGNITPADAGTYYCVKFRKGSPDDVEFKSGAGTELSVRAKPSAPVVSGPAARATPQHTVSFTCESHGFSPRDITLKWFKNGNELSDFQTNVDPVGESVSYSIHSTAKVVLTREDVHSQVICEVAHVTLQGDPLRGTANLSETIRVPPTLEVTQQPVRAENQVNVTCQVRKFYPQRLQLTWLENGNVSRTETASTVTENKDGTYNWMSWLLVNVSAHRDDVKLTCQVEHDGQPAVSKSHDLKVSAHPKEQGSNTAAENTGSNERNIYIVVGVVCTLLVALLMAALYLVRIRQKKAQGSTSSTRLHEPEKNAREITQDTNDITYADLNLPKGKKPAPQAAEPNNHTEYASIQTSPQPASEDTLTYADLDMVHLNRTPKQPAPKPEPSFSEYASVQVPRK
# Sequence of UniProt P78324 (Q08722 whole entry, looked up, the tested form may be a part): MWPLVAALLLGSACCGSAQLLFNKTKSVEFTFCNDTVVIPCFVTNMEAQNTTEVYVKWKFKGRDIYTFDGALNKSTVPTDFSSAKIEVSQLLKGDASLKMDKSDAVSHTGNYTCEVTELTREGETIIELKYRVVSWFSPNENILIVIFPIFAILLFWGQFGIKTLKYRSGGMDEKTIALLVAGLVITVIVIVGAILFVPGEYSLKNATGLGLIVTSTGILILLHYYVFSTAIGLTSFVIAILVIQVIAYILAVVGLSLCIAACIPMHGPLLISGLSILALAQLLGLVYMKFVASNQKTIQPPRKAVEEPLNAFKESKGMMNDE
# Sequence of UniProt P08684 (P08684 whole entry, looked up): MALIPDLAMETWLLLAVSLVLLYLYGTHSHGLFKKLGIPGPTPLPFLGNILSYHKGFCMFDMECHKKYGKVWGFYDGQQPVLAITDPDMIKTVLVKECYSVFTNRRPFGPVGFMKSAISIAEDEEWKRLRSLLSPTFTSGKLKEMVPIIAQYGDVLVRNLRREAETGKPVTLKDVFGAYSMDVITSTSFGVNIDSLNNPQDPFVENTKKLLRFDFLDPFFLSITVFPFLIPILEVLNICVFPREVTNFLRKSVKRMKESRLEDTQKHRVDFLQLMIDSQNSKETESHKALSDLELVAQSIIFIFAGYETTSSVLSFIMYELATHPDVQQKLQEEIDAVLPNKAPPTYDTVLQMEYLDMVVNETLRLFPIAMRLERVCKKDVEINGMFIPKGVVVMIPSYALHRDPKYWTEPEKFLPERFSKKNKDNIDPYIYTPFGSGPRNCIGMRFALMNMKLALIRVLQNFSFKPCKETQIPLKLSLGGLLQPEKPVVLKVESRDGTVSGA
# Sequence of UniProt P33261 (P33261 whole entry, looked up, canonical isoform): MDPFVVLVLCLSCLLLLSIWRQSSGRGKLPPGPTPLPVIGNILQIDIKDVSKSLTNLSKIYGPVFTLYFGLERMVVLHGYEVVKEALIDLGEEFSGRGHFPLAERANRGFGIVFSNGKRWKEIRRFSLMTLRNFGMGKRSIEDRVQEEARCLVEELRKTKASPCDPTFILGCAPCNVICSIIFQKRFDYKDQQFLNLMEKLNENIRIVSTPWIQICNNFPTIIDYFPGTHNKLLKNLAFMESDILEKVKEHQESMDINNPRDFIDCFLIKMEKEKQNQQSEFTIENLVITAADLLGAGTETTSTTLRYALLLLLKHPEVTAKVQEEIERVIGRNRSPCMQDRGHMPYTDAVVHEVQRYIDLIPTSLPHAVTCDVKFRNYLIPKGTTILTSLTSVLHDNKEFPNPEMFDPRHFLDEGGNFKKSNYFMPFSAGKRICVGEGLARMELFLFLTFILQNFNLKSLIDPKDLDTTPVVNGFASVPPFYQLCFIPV
# Sequence of UniProt Q03181 (Q03181 whole entry, looked up): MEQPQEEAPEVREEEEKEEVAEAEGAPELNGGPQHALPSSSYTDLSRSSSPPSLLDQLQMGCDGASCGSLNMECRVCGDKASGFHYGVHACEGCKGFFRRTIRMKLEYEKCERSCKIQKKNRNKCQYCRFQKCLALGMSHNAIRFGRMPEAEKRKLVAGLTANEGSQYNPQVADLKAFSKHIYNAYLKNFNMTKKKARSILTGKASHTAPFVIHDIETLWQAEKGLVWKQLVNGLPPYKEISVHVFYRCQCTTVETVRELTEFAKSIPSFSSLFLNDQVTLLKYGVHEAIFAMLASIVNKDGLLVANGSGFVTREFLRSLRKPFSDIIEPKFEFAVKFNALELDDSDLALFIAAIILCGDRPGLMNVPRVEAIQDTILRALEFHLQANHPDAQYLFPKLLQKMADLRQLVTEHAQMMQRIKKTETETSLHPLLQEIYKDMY
# Sequence of UniProt P11712 (P11712 whole entry, looked up): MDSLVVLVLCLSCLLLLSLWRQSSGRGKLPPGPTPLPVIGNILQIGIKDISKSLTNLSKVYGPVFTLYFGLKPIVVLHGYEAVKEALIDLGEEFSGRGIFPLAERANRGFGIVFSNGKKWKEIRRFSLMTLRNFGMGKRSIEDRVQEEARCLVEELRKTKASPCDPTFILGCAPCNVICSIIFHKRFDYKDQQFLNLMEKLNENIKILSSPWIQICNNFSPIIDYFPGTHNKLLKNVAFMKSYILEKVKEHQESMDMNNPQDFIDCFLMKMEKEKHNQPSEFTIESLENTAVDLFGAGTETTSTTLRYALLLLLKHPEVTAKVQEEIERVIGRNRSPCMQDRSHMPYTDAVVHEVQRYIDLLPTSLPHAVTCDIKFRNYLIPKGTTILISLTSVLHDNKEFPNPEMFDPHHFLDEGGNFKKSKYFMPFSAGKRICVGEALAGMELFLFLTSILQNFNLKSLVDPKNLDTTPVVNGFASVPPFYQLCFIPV
# Sequence of UniProt Q07869 (Q07869 whole entry, looked up): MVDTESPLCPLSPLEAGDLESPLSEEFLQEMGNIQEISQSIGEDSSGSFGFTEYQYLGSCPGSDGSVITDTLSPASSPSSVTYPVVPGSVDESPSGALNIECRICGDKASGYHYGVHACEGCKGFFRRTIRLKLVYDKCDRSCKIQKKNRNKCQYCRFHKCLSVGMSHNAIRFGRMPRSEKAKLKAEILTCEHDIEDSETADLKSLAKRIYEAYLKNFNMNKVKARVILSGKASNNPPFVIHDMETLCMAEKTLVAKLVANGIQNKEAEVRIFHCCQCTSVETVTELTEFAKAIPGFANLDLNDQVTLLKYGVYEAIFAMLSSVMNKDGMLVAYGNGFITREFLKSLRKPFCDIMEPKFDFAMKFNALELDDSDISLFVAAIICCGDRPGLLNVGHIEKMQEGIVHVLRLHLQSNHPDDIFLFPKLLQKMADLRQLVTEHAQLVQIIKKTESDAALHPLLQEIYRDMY
# Sequence of UniProt P10635 (P10635 whole entry, looked up): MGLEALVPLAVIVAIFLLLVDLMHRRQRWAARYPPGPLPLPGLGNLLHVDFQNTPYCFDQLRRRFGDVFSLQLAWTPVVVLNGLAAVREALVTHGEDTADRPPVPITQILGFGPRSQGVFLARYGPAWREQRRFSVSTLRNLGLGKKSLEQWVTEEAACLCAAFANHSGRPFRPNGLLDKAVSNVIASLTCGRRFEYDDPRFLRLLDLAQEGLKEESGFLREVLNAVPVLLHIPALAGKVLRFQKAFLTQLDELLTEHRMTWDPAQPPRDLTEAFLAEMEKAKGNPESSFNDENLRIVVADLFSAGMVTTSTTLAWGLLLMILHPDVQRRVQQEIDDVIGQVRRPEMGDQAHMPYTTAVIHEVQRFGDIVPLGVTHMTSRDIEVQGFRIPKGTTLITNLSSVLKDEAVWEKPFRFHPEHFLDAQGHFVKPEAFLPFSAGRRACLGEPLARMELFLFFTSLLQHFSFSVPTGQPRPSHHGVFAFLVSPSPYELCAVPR
structure (smiles),measurement,setting,value
CC1(COc2ccc(CC3SC(=O)NC3=O)cc2)CCCCC1 (stereo not given),Potency,[1],"inconclusive [fluorescent, side channel]"
same,activation,[2],inconclusive: -7.56%
same,Potency,[3],"inconclusive [side channel, falling, partial curve, poor fit]"
same,Potency,[4],"inconclusive [activator, single point]"
same,Potency,[5],"inconclusive [activator, partial curve, poor fit]"
same,Potency,[6],"inconclusive [cytotoxic, single point]"
CCN(CC)CCNC(=O)c1cc(S(C)(=O)=O)ccc1OC,Potency,[7],"inconclusive [inhibitor, full curve, poor fit]"
same,Potency,[8],inactive
same,Potency,[9],inactive
Cc1cn2cc(C(=O)N(C)CCO)cc(N[C@@H]3CCOc4cccc(C)c43)c2n1,Potency,[10],"inconclusive [rising, full curve, poor fit]"
same,Potency,[11],inactive
same,Potency,[12],"inconclusive [rising, full curve, poor fit]"
O=C(/C=C/c1ccc(O)c(O)c1)O[C@@H]1C[C@@](OC(=O)/C=C/c2ccc(O)c(O)c2)(C(=O)O)C[C@@H](O)[C@@H]1O,Potency,[13],inactive
O=c1[nH]cnc2nc[nH]c12,Potency,[14],inactive
C[C@@H]1C[C@H]2[C@@H]3C[C@H](F)C4=CC(=O)C=C[C@]4(C)[C@@]3(F)[C@@H](O)C[C@]2(C)[C@@]1(O)C(=O)CO,Potency,[15],inactive
same,Potency,[16],inactive
same,Potency,[17],inactive
same,Potency,[18],"inconclusive [cytotoxic, partial curve, poor fit]"
CC(=O)Nc1nnc(S(N)(=O)=O)s1,Potency,[19],inactive
same,Potency,[20],inactive
